Hit rate of the full screen: of about 140,000 compounds, about 240 (0.17%) were called active. Inconclusive means that the source gave no clear call. Such entries were picked first, then a sample of the others. Calls come from the whole dose curve; as a rule, active = well fitted inhibition curve with a large enough effect; inconclusive = small, poorly fitted or top-dose-only effect; inactive = no such curve, though single readings can be large or run the other way. A potency beside an inconclusive call is a rough fit, not a confirmed value.
experiment: Primary qHTS assay for inhibitors of alpha-synuclein gene (SNCA) expression; conditions: HEK-293 SNCA-luciferase knock-in, luminescence, 24 h; series mostly up to 57.2 µM; note: nearly all actives have a fitted effect of over 45% in size
Potency is the fitted concentration of half-maximal effect; tags give direction and shape of the fitted curve.

Row | Compound | Potency
1 | O=C(C1CCN(Cc2ccco2)CC1)N1CCC2(CCCNC2=O)C1 (stereo not given) | inactive
2 | O=C(NC[C@H]1O[C@@H](CC(=O)N2CCN(c3ccccc3)CC2)C(O)[C@@H]1O)c1cccc(F)c1 (stereo not given in full) | inconclusive: 2.24 µM [inhibitor, full curve]
3 | O=C(Cc1cccc(C(F)(F)F)c1)N1CCCc2ncc(C(=O)N3CCCC[C@@H]3c3ccccc3)cc21 | inactive
4 | CCCCn1nc(C2CCOCC2)nc1CCC(=O)N(C)C | inconclusive: 39.8 µM [inhibitor, single point]
5 | O=C(CCn1cnc2onc(-c3ccc(F)cc3)c2c1=O)Nc1cccc(C(F)(F)F)c1 | inconclusive: 25.1 µM [inhibitor, single point]
6 | O=C1NCC2(CCN(C(=O)c3ccc(C(F)(F)F)cc3)CC2)Oc2ccccc21 | inconclusive: 0.708 µM [inhibitor, full curve, poor fit]
7 | CCN(CC)C(=O)Cn1c(SCC(=O)Nc2ccc(F)cc2)nc2ccccc21 | inconclusive: 39.8 µM [inhibitor, single point]
8 | CC(C)N1CC2CCC(C1)N2Cc1cccc(C#N)c1 | inconclusive: 3.98 µM [inhibitor, partial curve, poor fit]
9 | O=C(c1cccc(F)c1)N1CCC(Oc2ccccc2-c2nc(C3CCOCC3)no2)C1 (stereo not given) | inconclusive: 2.82 µM [inhibitor, partial curve, poor fit]
10 | O=C(Nc1ccsc1)N[C@H]1C[C@H]2C(=O)NC[C@@H](CCC(=O)N3CCN(c4ccccn4)CC3)N2C1 | inactive
11 | COc1ccc2c(CNC3CCC(C)CC3)c(C(=O)O)n(Cc3ccc(F)cc3)c2c1 (stereo not given) | inconclusive: 39.8 µM [inhibitor, single point]
12 | COc1ccc(C(=O)N2CCCC(C(=O)NCc3ccncc3)CCNC(=O)CC2)c(OC)c1 (stereo not given) | inactive
13 | Cc1ccc(N(Cc2cccs2)C(=O)c2ccc(OC(C)C)cc2)cc1 | inconclusive: 15.8 µM [inhibitor, partial curve, poor fit]
14 | CCc1noc(-c2nc(-c3ccccc3F)no2)n1 | inactive
15 | COCCOC(=O)C1=C(C)NC(C)=C(C(=O)OC/C=C/c2ccccc2)C1c1cccc([N+](=O)[O-])c1 (stereo not given) | inconclusive: 22.4 µM [inhibitor, single point]
16 | O=c1cnc2cnc(Oc3ccccc3)nc2n1Cc1cccs1 | inconclusive: 35.5 µM [inhibitor, partial curve, poor fit]
17 | CC1=C(C(=O)OC(C)C)C(c2ccccc2C)N2C(CC(=O)NC3CC3)=CSC2=N1 (stereo not given) | inconclusive: 3.16 µM [inhibitor, partial curve, poor fit]
18 | O=C(c1ccccc1Cl)N1CCCC(C(=O)N2CCC(N3CCCC3=O)CC2)C1 (stereo not given) | inactive
19 | O=C(CSc1nc2c([nH]c3ccccc32)c(=O)n1-c1ccccc1F)Nc1cccc(Cl)c1 | inconclusive: 39.8 µM [inhibitor, single point]
20 | COc1ccc(C(=O)NCc2nnc3c(-c4nc(C(C)C)no4)cccn23)cc1 | inconclusive: 28.2 µM [inhibitor, single point]
21 | Cc1ccc(CNC(=O)Cn2c(N3CCc4ccccc4C3)nc(C)cc2=O)cc1 | inconclusive: 39.8 µM [inhibitor, single point]
22 | O=C(NC1CCN(Cc2ccc(-c3ccsc3)cc2)C1)c1ccccc1F (stereo not given) | inactive

Row | Compound | Potency
23 | COc1ccc(-n2nc3n(c2=O)CCN(CC2CCCCC2)C3)cc1 | inactive
24 | Cc1cccc(Cn2c(CN3CCC(C(=O)NC(C)C)CC3)cc3ccccc32)c1 | inconclusive: 39.8 µM [inhibitor, single point]
25 | COc1ccc(CNC(=O)C2CCN(S(=O)(=O)c3cccc(-c4noc(C)n4)c3)CC2)cc1 | inconclusive: 7.08 µM [inhibitor, single point]
26 | CSc1nccc(-c2cc(NCc3cccnc3)nc3[nH]ccc23)n1 | inconclusive: 39.8 µM [inhibitor, single point]
27 | COc1ccc(CN(C)Cc2csc(C)n2)cc1CN1CCCC1 | inconclusive: 11.2 µM [inhibitor, partial curve, poor fit]
28 | Cc1ccccc1N1CCN(C(=O)c2noc(-c3ccc[nH]c3=O)n2)CC1 | inactive
29 | Cc1cccc(-n2ncc3c(NNC(=O)c4ccccc4Cl)ncnc32)c1 | inconclusive: 17.8 µM [inhibitor, single point]
30 | Cc1cccc(N2CCN(c3nc4ccccc4c4nnc(C)n34)CC2)c1C | inconclusive: 0.158 µM [inhibitor, partial curve, poor fit]
31 | Cc1noc(C)c1CC(=O)N[C@@H]1CN(C2CCOCC2)C[C@H]1CN(C)C | inconclusive: 1.78 µM [inhibitor, partial curve, poor fit]
32 | COCC1CCN(C(=O)CC(c2ccccc2)c2ccccc2C)CC1 (stereo not given) | inconclusive: 7.94 µM [inhibitor, full curve]
33 | COCCOC1CCOC2(CCN(C(=O)Nc3ccccc3F)CC2)C1 (stereo not given) | inactive
34 | Cc1ccc(OCCn2c(C3CC(=O)N(Cc4ccc(F)cc4)C3)nc3ccccc32)c(C)c1 (stereo not given) | inconclusive: 17.8 µM [inhibitor, partial curve, poor fit]
35 | O=C(NC1CC1)[C@@H]1CCCN1c1nccc(Nc2ccccc2Cl)n1 | inconclusive: 39.8 µM [inhibitor, single point]
36 | O=S(=O)(NCC(c1ccccc1)N1CCc2ccccc21)c1ccc(Cl)cc1 (stereo not given) | inconclusive: 11.2 µM [inhibitor, single point]
37 | Cc1cccc(-c2cccc(CN3CCC(NC(=O)Nc4ccc(Cl)cc4)CC3)c2)c1 | active: 20 µM
38 | CN1[C@@H](CCC(=O)NCc2cccs2)CNC(=O)[C@@H]2[C@H]1CCN2Cc1nc2ccccc2n1C | inconclusive: 12.6 µM [inhibitor, partial curve, poor fit]
39 | Cc1nc(NCCN2CCC(O)CC2)cc(C2CC(O)C2)n1 (stereo not given) | inconclusive: 15.8 µM [inhibitor, partial curve, poor fit]
40 | CC(C)(C)Cn1c(N)nc2ccc(-c3[nH]c(C(C)(C)C)nc3-c3ccc(F)cc3)nc21 | active: 27.1 µM
41 | O=C(Cc1ccc(N(Cc2ccc(F)cc2)C(=O)c2ccco2)cc1)Nc1ccc(F)cc1 | inactive
42 | O=C(NC1CCN(c2cc(-c3ccc(F)cc3)[nH]n2)CC1)c1ccc(F)c(Cl)c1 | inactive
43 | CC(C)CCNc1nc(Nc2ccccc2)c2cnn(C)c2n1 | inconclusive: 39.8 µM [inhibitor, single point]
44 | COc1ncc(-c2nccc3c(=O)cc(N4CCN(C)CC4)oc23)cn1 | inactive

Row | Compound | Potency
45 | CCc1nc2c(c(-c3ccc(Cl)cc3)n1)CN(Cc1ccc(F)cc1)CC2 | inconclusive: 31.6 µM [inhibitor, partial curve, poor fit]
46 | CN1C[C@@H](NC(=O)Nc2ccccc2)C[C@H]1c1nc(Cc2ccccc2)no1 | inactive
47 | Cc1cccc(-c2nc3ccc(C(=O)NCC(C)C)cc3o2)n1 | inconclusive: 31.6 µM [inhibitor, single point]
48 | Fc1ccccc1-c1cnc2n[nH]c(-c3ccc4c(c3)OCO4)c2n1 | inconclusive: 22.4 µM [inhibitor, partial curve, poor fit]
49 | Fc1ccc(-c2cc(-c3ccc(F)cc3)c3c(n2)-c2cc(F)ccc2OC3)cc1 | inconclusive: 3.98 µM [inhibitor, single point]
50 | Cc1cc(C)cc(-c2ccc(CN3CCCC3C(=O)NCC(F)F)cc2)c1 (stereo not given) | inconclusive: 39.8 µM [inhibitor, single point]
51 | O=C(c1ccc(-c2cncnc2)cc1)N1CCC(C(=O)N2CCCCC2)CC1 | inconclusive: 39.8 µM [inhibitor, single point]
52 | OCCCNc1cc(-c2ccnc(Nc3cccc(Cl)c3)n2)ccn1 | inconclusive: 0.271 µM [inhibitor, full curve]
53 | COc1cccc(C(=O)N2CCCn3ccnc3C2C(C)C)c1OC (stereo not given) | inactive
54 | CC(=O)NCCNC(=O)CCCc1nnc2n(CC(C)C)c(=O)c3sccc3n12 | inactive
55 | COc1ccc(S(=O)(=O)NCc2cccn2Cc2cc(C)ccc2C)cc1OC | inconclusive: 39.8 µM [inhibitor, single point]
56 | Cc1csc(NC(=O)c2nc3c(o2)CCN(Cc2ccccc2)CC3)n1 | inconclusive: 28.2 µM [inhibitor, single point]
57 | Clc1cccc(-c2nnnn2Cc2cccnc2)c1Cl | inconclusive: 1.08 µM [inhibitor, full curve]
58 | Cc1noc(-c2cccs2)c1C(=O)NC(C)c1ccccc1 (stereo not given) | inactive
59 | CCOc1ccc(NC(=O)c2nc(S(=O)(=O)Cc3ccccc3F)ncc2Cl)cc1 | inconclusive: 2 µM [inhibitor, full curve, poor fit]
60 | Cc1cc(Br)ccc1NC(=O)CSc1c2c(nc3ccccc13)CCC2 | inconclusive: 20 µM [inhibitor, single point]
61 | Cc1ccc2nc(CO[C@H]3CN(Cc4ccc(C(F)(F)F)cc4)C[C@H]3F)[nH]c2c1 | inconclusive: 14.1 µM [inhibitor, partial curve]
62 | CN1CC(C(=O)NCCCc2ccccc2)NC1=O (stereo not given) | inactive
63 | CC(=O)N1CCc2c(sc3c2c(=O)n(-c2ccccc2)c(=O)n3CC(=O)Nc2cc(C)cc(C)c2)C1 | inactive
64 | Nc1ncn([C@@H]2O[C@H](CO)[C@@H](O)[C@H]2O)c(=O)n1 | inconclusive: 15.8 µM [inhibitor, single point]
65 | CCc1nc(C)c(C(=O)N2CC[C@@](O)(COC)C(C)(C)C2)s1 | inconclusive: 3.16 µM [inhibitor, single point]

Source: PubChem BioAssay AID1671194 (National Center for Advancing Translational Sciences (NCATS), 2021)
